Assay results reported in the RNAGym collection of RNA variant scans (doi:10.1073/pnas.2313332121).
Variants at the floor of the assay are shown more often than the library holds them.

B1: TPR 5TU (parent)
chain: GGAUCUUCUCGAUCUAACAAAAAAGACAAAUCUGCCACAAAGCUUGAGAGCAUCUUCGGAUGCAGAGGCGGCAGCCUUCGGUGGCGCGAUAGCGCCAACGUUCUCAACUAUGACACGCAAAACGCGUGCUCCGUUGAAUGGAGUUUAUCAUG

Variants of: B1
Test: polymerase ribozyme fitness, log enrichment relative to wild type (log ratio); higher = more active; in vitro selection for triplet polymerase activity
Summary of the method: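 For each subunit of a heterodimeric triplet polymerase ribozyme, a mutant library was built by PCR and transcribed, then taken through a single in vitro selection round in triplicate. Selection involved annealing to a biotinylated primer, the partner subunit and triplets, incubation frozen at −7 °C, gel excision of extended constructs, capture on streptavidin beads and RT-PCR. Genotypes were retained after Illumina sequencing of inputs and outputs only with ≥10 input reads and ≥1 read in each output. Fitness is defined as the logarithm of a genotype's enrichment relative to wild-type enrichment, using inverse-variance-weighted averages across replicates, with the logarithm taken to base 2.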

| Variant | polymerase ribozyme fitness (log ratio) |
| --- | --- |
| A19U C96G A142C | -2.72 |
| A19U G46A G84U C103A C105G C108G C131G G141C | ≤ -4.2 |
| A19U A40G G50C A52U C54U C96A G140U | ≤ -4.2 |
| A19U G48A U61G A121G G124A A138C | ≤ -4.2 |
| A19G U31A U135G | ≤ -4.2 |
| A19G C51U A52C A60U G65A G84U C85A C87U A98C A138G | ≤ -4.2 |
| A19U G25A A41C G46A U55A G59A G68C C72G C96U A97G G100U U145G | ≤ -4.2 |
| C18U A52G G83C U146G | -2.39 |
| A19G C27G A29G A41C G48C A49G U53A C72G C87A | ≤ -4.2 |
| A19C A20G G136A A147G | -2.36 |
| A19C C76G G88A | ≤ -4.2 |
| A19C G70A A98U U111C | ≤ -4.2 |
| A19G U33C C85G A97C | ≤ -4.2 |
| C18U G50U G67A C96U C103G | ≤ -4.2 |
| A19C G86A | -0.455 |
| A19G C36A C87G C108A C118U | ≤ -4.2 |
| A19U C57A A60C C93A | ≤ -4.2 |
| A19C G46A C72U G83U G92C U146A | ≤ -4.2 |
| A19C U45A A91G A107C | ≤ -4.2 |
| A19U G34A A60C G83A C96G U101C U144C | ≤ -4.2 |
| A19C C27A U56A G58C G84C C108G U151G | ≤ -4.2 |

| Variant | polymerase ribozyme fitness (log ratio) |
| --- | --- |
| A19U A66C C72U G84U | ≤ -4.2 |
| A19C G80C C105U G117C A120U | ≤ -4.2 |
| A19U A22G C38A U61G G88A C99G | ≤ -4.2 |
| A19U A21C C32A U44A G92C G128A | ≤ -4.2 |
| C18U A52G U55C G58A G68C U77C C87G G136C G143A U148G | ≤ -4.2 |
| A19U C43A A52C U53A C72U G83A | ≤ -4.2 |
| A19G G34U C38U A60G C87G C93A | ≤ -4.2 |
| A19C A20U C38A C87G A110G U145C | ≤ -4.2 |
| A19C C27U A47G G143U | ≤ -4.2 |
| A19C C43U | ≤ -4.2 |
| C18U C36U U45A A47C | ≤ -4.2 |
| A19C A47C G59U C87U C96G A97U A142C G143A | ≤ -4.2 |
| C18U A30U U55G C69U U78C G88C U134C G136U | ≤ -4.2 |
| A19C A40U G94A A110U | ≤ -4.2 |
| A19U A23G C38U A60G C96A C103G G143A | ≤ -4.2 |
| A19G G48C G86A C103U C108G | ≤ -4.2 |
| A19C A24U C57G C75U G92U C118A | -0.536 |
| A19C A28U A40G G65U U145G | ≤ -4.2 |
| A19U A20G U45G G46U A49C U90G C96G C132U | ≤ -4.2 |
| A19G C87A C116A G143C U145G G152U | ≤ -4.2 |
| A19U A26G A29U G94U C129U | ≤ -4.2 |

| Variant | polymerase ribozyme fitness (log ratio) |
| --- | --- |
| A19U C69A G92U U104G C108G C118U C123G U139A | ≤ -4.2 |
| A19U A60G C72U G143U | ≤ -4.2 |
| C18U U56A U90G C99U A120C C132U U134C | ≤ -4.2 |
| A19U G68U C96U U144G G152U | ≤ -4.2 |
| A19C A23C G42U G46A G88A A150U | ≤ -4.2 |
| A19G C27U A28U G50A A52U G86U C118U | ≤ -4.2 |
| A19G C54G G70A A73G G92A A106G C116G A137G | ≤ -4.2 |
| C18U A41G G42A A47U U55A U61G U130A A138U G141A | ≤ -4.2 |
| C18U C36U G42A C72A C85A U102G C103G A106U | ≤ -4.2 |
| A19C G50C U90C G126C U148C | ≤ -4.2 |
| A19G C35U A52U A66C U134A | ≤ -4.2 |
| A19G A29C A30C U82G | ≤ -4.2 |
| A19G A20G A24C C36U U55G G117C U135A A142C | ≤ -4.2 |
| A19G A37C U55C C125U G141C U146G | ≤ -4.2 |
| A19U C38U C43A U55A G59C G128U | ≤ -4.2 |
| A19U C63G G70A A97G | ≤ -4.2 |
| A19G C43U A66G C75G C95A | ≤ -4.2 |
| C18U C32G G84U A121C | ≤ -4.2 |
| A19G G42C A52G C87A U111C A113U G143U | ≤ -4.2 |
| A19G C79A G94U A119U A142C G152U | ≤ -4.2 |
| C18U C76A U127G A137C | ≤ -4.2 |

| Variant | polymerase ribozyme fitness (log ratio) |
| --- | --- |
| A19U C27G G59U C87A A122U | ≤ -4.2 |
| A19C G86U A137C G143C | ≤ -4.2 |
| A19U A21U G46C C96A U134A | ≤ -4.2 |
| A19C A41G U53A C75G C129U | ≤ -4.2 |
| A19U G88U C93A | ≤ -4.2 |
| A19C C99G A107U | ≤ -4.2 |
| A19C C38U A39C U55G U135G | ≤ -4.2 |
| A19G C76U C85A U151G | ≤ -4.2 |
| A19C U55G C96A C108G C116G A119C | ≤ -4.2 |
| A19C C57U U90C U127A A137G U144G | ≤ -4.2 |
| A19C C72U C93G C108A C116U C129A | ≤ -4.2 |
| A19G G48A C75G C93A | ≤ -4.2 |
| A19G A24U U77G C93U | ≤ -4.2 |
| A19C C32G C85U C87G U102G A121G G124A U139G | ≤ -4.2 |
| A19C A89U C96A A138G | ≤ -4.2 |
| A19C A26U A39G G50A C54U A91U | ≤ -4.2 |
| C18U C93A C95A C123G | ≤ -4.2 |
| A19U G42U A113G A121U G124C U148A | ≤ -4.2 |
| A19U G80A | -0.164 |
| A19U C114G | -3.52 |
| A19G G46U A49C A66C C79A U102G | ≤ -4.2 |
